# Laboratory results published in PubChem BioAssay AID1468 (National Center for Advancing Translational Sciences (NCATS), 2008).
# Where “and” joins values, the source holds several entries; their conditions need not be identical. Equal values may be shown once. The whole screen tested about 280,000 compounds, of which about 1,100 (0.39%) were called active. The shares of active, inactive and inconclusive entries below differ from those in the screen. Calls follow the shape of the dose curve; as a rule, active = well fitted inhibition curve with a large enough effect; inconclusive = small, poorly fitted or top-dose-only effect, or effect the other way; inactive = flat fitted curve, though single readings scatter. Potencies of inconclusive entries are left out as doubtful fits.
# Target: Microtubule-associated protein tau (Homo sapiens) (UniProt P10636)
# Chain of UniProt P10636 (P10636 whole entry, looked up): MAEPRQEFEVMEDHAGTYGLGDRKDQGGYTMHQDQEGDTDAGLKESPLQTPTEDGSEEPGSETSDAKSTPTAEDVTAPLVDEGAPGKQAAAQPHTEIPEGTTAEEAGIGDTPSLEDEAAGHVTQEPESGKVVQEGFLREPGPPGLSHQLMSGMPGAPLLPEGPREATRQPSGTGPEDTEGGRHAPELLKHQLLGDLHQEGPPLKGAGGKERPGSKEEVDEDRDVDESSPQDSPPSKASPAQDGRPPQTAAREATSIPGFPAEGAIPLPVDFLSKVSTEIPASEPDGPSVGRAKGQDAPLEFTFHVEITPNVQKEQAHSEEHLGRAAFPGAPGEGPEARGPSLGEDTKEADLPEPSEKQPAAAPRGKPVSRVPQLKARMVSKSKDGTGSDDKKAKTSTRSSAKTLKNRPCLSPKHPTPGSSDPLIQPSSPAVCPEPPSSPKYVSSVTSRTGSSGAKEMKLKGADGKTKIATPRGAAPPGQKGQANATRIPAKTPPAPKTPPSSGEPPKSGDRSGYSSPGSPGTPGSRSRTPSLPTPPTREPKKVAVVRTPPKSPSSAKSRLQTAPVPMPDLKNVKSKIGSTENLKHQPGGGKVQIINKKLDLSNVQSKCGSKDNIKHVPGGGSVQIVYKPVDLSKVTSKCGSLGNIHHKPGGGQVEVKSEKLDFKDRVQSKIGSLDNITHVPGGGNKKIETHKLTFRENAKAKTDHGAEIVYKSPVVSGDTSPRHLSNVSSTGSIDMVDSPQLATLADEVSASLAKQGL
# Experiment: qHTS for Inhibitors of Tau Fibril Formation, Fluorescence Polarization; also: nearly all actives have a fitted effect of over 55% in size
# Conditions: K18 P301L tau heparin fibrillization, Alexa594 FP, 6 h; series mostly up to 57.7 µM
# In short: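 FP of Alexa 594-tau after heparin (20 uM) induction. Substrate: human K18 P301L, 15 uM unlabeled, 0.24 uM labeled. Buffer 100 mM sodium acetate pH 7. 6 hr, 37 C.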
# % is scaled to controls: 0 for no effect and ±100 for the full control effect; potency is read from the fitted curve at half-maximal effect; tags tell the direction and shape of the fitted curve.
SMILES,Potency,"activity, negative = inhibition"
CCOC(=O)c1ccc(CN(Cc2ccc(C)cc2)S(=O)(=O)c2ccc(F)c(C(=O)Nc3ccc(C)c(F)c3)c2)cc1,"inconclusive [inhibitor, partial curve]",–
Nc1cc(S(=O)(=O)Nc2ccc(Br)cc2)ccc1Cl,"inconclusive [inhibitor, partial curve]",–
N#Cc1c[nH]n2c(NC3CCCC3)c(-c3cccc(Br)c3)nc12,"inconclusive [activator, partial curve, poor fit]",–
CCN(CC)CCNC(=O)c1ccc(NC(=O)c2cccc(S(=O)(=O)Nc3ccc(C)cc3)c2)cc1,"inconclusive [inhibitor, single point]",–
Cc1nn(C)c(C)c1/C=C1/SC(=S)NC1=O,inactive,–
Cc1ccc(S(=O)(=O)NCC(=O)N/N=C/c2ccc(Cl)cc2Cl)cc1,inactive,–
Cc1cnc(C(=O)OCC(=O)NCc2ccc3c(c2)OCO3)cn1,"inconclusive [inhibitor, single point]",–
CS/C(=C\[N+](=O)[O-])Nc1ccc(OC(F)(F)F)cc1,inactive,–
CN(C)c1ccc(CN(Cc2ccco2)C(=O)COc2ccc(F)cc2)cc1,inactive,–
Cn1ccc(C(=O)NC(=S)N2CCSCC2)n1,inactive,–
Cc1nn(C)c(C)c1CN(C)S(=O)(=O)c1ccc2ccccc2c1,inactive,–
O=C(Cn1nc(CNc2ccc(Br)cc2)[n+]2c1CCCCC2)c1ccc([N+](=O)[O-])cc1,inactive,–
COC(=O)c1ccc(-c2nc(O)c(C)s2)cc1,"inconclusive [inhibitor, single point]",–
C=CCn1c(SCC(=O)Nc2sccc2C(N)=O)nc2ccc(Cl)cc2c1=O,"inconclusive [inhibitor, single point]",–
CCOC(=O)Cc1csc(NC(=O)/C=C/c2ccccc2Cl)n1,"inconclusive [inhibitor, partial curve, poor fit]",–
CN(C)CCCN(C(=O)CCOc1ccccc1)c1nc2ccc(F)cc2s1,inactive,–
Cc1cccc(N2C(=O)C(Cl)=C(N3CCOCC3)C2=O)c1,active: 25.1 µM,–
O=C(Nc1cccc(S(=O)(=O)N2CCOCC2)c1)c1cc2ccccc2o1,"inconclusive [inhibitor, single point]",–
C[N+](C)(C)CC(O)CC(=O)O (stereo unspecified),"inconclusive [inhibitor, single point]",–
O=C(NCc1ccco1)c1cnn2cccnc12,"inconclusive [inhibitor, partial curve]",–
O=C(Nc1ccccn1)c1ccc(COc2ccccc2Cl)o1,"inconclusive [inhibitor, partial curve]",–
N#CC1=C(N)C(C#N)(C#N)C(c2cccnc2)C2CCCC=C12 (stereo unspecified),"inconclusive [inhibitor, single point]",–

SMILES,Potency,"activity, negative = inhibition"
CC1(C)CC(=O)C(C=Nc2ccc(NC3=C(C#N)C(=O)CC(C)(C)C3)cc2)=C(O)C1,"inconclusive [inhibitor, single point]",–
COC(=O)c1ccc([C@@H]2Nc3c(OC)ccc(C)c3[C@@H]3C=CC[C@@H]32)cc1,"inconclusive [inhibitor, single point]",–
Cc1ccc(-c2cc(C(=O)N3CCOCC3)c3ccccc3n2)cc1,inactive,–
O=C(Cn1c(=O)n(Cc2nc(-c3ccccc3)no2)c(=O)c2cc3c(cc21)OCO3)Nc1ccccc1,active: 28.2 µM,–
Cc1cc(C)n(-c2nc(N(c3ccccc3)c3ccccc3)nc(-n3nc(C)cc3C)n2)n1,"inconclusive [inhibitor, partial curve]",–
COc1cccc(-c2ccc(C#N)c(SCC(=O)NCCc3ccc(Cl)cc3)n2)c1,"inconclusive [inhibitor, partial curve, poor fit]",–
CCOc1ccc(C2C(C(=O)/C=C/c3ccco3)=C(O)C(=O)N2CCN2CCOCC2)cc1OC (stereo unspecified),"inconclusive [inhibitor, partial curve]",–
CC(=O)Nc1ccc(C2=NNC(=NCC3CCCO3)SC2)cc1 (stereo unspecified),"inconclusive [inhibitor, single point]",–
CC(C)CC(=O)Nc1ccc2nc(SCC(=O)N3CCc4ccccc43)sc2c1,"inconclusive [inhibitor, single point]",–
COc1ccccc1NC(=O)CSc1ncc2c(n1)-c1ccccc1N(Cc1ccccc1C)S2(=O)=O,"inconclusive [inhibitor, partial curve]",–
O=C(COC(=O)c1cc(-c2cccs2)nc2ccccc12)c1ccc(F)cc1,"inconclusive [inhibitor, partial curve]",–
CCOc1cc(C2C3=C(CCCC3=O)N(C)C3=C2C(=O)CCC3)cc(Cl)c1O,inactive,–
Oc1ccccc1-c1nc(-c2cccs2)c(-c2cccs2)[nH]1,"inconclusive [inhibitor, single point]",–
CCOc1ccc(-c2c(C#N)c(N)nc3sc(C(=O)c4ccccc4)c(N)c23)cc1,"inconclusive [inhibitor, full curve, poor fit]",–
Cc1cc(C)cc(OCCSc2nc3ccc(NC(=O)c4ccc5c(c4)OCO5)cc3s2)c1,"inconclusive [inhibitor, partial curve]",–
CCc1ccc2[nH]cc(S(=O)(=O)c3ccc(C(C)C)cc3)c(=O)c2c1,"inconclusive [inhibitor, partial curve]",–
CC(=O)OC[C@@H]1O[C@H](C/C=N\OCC[C@H]2C=C[C@H](OC(C)=O)[C@@H](COC(C)=O)O2)C=C[C@@H]1OC(C)=O,–,inactive: -5.1% [at 11.6 µM]
CCOC(=O)c1c(NC(=O)c2cc(-c3ccccc3OC)on2)sc(C)c1C,"inconclusive [inhibitor, single point]",–
O=C(COc1ccccc1F)Nc1ccc2nc(SCC(=O)N3CCc4ccccc43)sc2c1,"inconclusive [inhibitor, partial curve]",–
COc1ccc(Nc2nc(C(=O)NCc3ccco3)cs2)cc1,"inconclusive [activator, single point]",–
CC1=C(C(=O)Nc2cccnc2)C(c2ccc(F)cc2)n2nc(-c3cccc(C)c3)nc2N1 (stereo unspecified),"inconclusive [inhibitor, partial curve, poor fit]",–
O=C(CCc1ccc(S(=O)(=O)NCCc2ccccc2)cc1)Nc1ccc2c(c1)OCO2,"inconclusive [inhibitor, full curve, poor fit]",–

SMILES,Potency,"activity, negative = inhibition"
Cc1cc(NC(=O)C2CCN(S(=O)(=O)c3c(C)noc3C)CC2)ccc1Br,"inconclusive [inhibitor, single point]",–
CCc1ccc(S(=O)(=O)c2cn(CC(=O)Nc3ccc(F)c(Cl)c3)c3ccccc3c2=O)cc1,"inconclusive [inhibitor, partial curve]",–
NC1=NC(=O)/C(=C/c2c(OS(=O)(=O)c3ccc(Cl)cc3)ccc3ccccc23)S1,"inconclusive [inhibitor, single point]",–
CCCCc1ccc(NC(=S)NCc2ccccc2OC)cc1,inactive,–
O=C(CSc1nnc(C2CC2)n1-c1ccccc1)Nc1ccc(N2CCOCC2)cc1,"inconclusive [activator, single point]",–
COc1ccc(C(=O)n2nc(N)c3cc4ccc(C)cc4nc32)cc1OC,"inconclusive [inhibitor, partial curve]",–
COCCNC(=O)CCCn1c(SCC(=O)Nc2ccc(F)cc2)nc2c(sc3ccccc32)c1=O,"inconclusive [inhibitor, partial curve, poor fit]",–
Cc1nc2cc(-c3ccccc3)nn2c(C)c1CCC(=O)N1CCN(c2ccc(F)cc2)CC1,inactive,–
COC(=O)c1cc2oc(C)cc2n1Cc1ccccc1Cl,inactive,–
Cc1ccccc1NC(=S)Nc1ccc(Br)cc1,inactive,–
CCCOC(=O)c1cccc(Nc2nc(CCC)cc(=O)[nH]2)c1,active: 22.4 µM,–
COc1cc(C2CC(=O)N(Cc3cccc(F)c3)c3ccccc3S2)cc(OC)c1OC (stereo unspecified),inactive,–
CNC(=O)Nc1cc(C(F)(F)F)cc(C(F)(F)F)c1,"inconclusive [inhibitor, partial curve, poor fit]",–
OCC1OC(C#Cc2ccccc2)C=CC1O (stereo unspecified),–,inactive: -2.6% [at 11.6 µM] and inactive: -1.98% [at 11.6 µM] and inactive: -5.1% [at 11.6 µM]
CN1CCC(CNC(=O)Nc2csc3ccccc23)CC1,inactive,–
Cc1cccc(CSCCNC(=O)Nc2ccccc2)c1,"inconclusive [inhibitor, single point]",–
COc1ccc(CCNC(=O)COC(=O)c2ccc(N3CCCC3=O)cc2)cc1,"inconclusive [activator, single point]",–
O=c1nc2s/c(=C\c3ccco3)c(=O)n2nc1Cc1ccc(F)cc1,"inconclusive [inhibitor, partial curve, poor fit]",–
COc1ccc(Cl)cc1-n1cc(-c2ccccc2)nc1SCC(=O)Nc1ccc(C)cc1,"inconclusive [inhibitor, single point]",–
COc1ccc(-c2cc(-c3ccc(C)cc3)nc3c2COc2ccccc2-3)cc1,"inconclusive [inhibitor, partial curve, poor fit]",–
O=C(CN1CCN(Cc2ccccc2)CC1)Nc1cccc(C(F)(F)F)c1,inactive,–
COc1ccc(-c2nnnn2C(C)C)cc1S(=O)(=O)Nc1ccccc1,"inconclusive [inhibitor, single point]",–
